Test results taken from PubChem BioAssay AID504339 (National Center for Advancing Translational Sciences (NCATS), 2011).
Out of some 390,000 compounds screened, about 17,000 (4.4%) were called active. The inconclusive results got no clear call from the source; some entries with a clear call stand among them for comparison. Calls follow the shape of the dose curve; as a rule, active = well fitted inhibition curve with a large enough effect; inconclusive = small, poorly fitted or top-dose-only effect; inactive = no such curve, though single readings can be large or run the other way. Potencies of inconclusive entries are doubtful fits and often do not repeat.

Each molecule was assayed against Lysine-specific demethylase 4A (Homo sapiens) (UniProt O75164) (assay: qHTS Assay for Inhibitors of JMJD2A-Tudor Domain). Conditions: AlphaScreen JMJD2A-Tudor / H3K4me3 peptide binding; activity change, negative = inhibition: at 114 µM (top of the series).
Sequence of UniProt O75164 (O75164 whole entry, looked up, the tested form may be a part): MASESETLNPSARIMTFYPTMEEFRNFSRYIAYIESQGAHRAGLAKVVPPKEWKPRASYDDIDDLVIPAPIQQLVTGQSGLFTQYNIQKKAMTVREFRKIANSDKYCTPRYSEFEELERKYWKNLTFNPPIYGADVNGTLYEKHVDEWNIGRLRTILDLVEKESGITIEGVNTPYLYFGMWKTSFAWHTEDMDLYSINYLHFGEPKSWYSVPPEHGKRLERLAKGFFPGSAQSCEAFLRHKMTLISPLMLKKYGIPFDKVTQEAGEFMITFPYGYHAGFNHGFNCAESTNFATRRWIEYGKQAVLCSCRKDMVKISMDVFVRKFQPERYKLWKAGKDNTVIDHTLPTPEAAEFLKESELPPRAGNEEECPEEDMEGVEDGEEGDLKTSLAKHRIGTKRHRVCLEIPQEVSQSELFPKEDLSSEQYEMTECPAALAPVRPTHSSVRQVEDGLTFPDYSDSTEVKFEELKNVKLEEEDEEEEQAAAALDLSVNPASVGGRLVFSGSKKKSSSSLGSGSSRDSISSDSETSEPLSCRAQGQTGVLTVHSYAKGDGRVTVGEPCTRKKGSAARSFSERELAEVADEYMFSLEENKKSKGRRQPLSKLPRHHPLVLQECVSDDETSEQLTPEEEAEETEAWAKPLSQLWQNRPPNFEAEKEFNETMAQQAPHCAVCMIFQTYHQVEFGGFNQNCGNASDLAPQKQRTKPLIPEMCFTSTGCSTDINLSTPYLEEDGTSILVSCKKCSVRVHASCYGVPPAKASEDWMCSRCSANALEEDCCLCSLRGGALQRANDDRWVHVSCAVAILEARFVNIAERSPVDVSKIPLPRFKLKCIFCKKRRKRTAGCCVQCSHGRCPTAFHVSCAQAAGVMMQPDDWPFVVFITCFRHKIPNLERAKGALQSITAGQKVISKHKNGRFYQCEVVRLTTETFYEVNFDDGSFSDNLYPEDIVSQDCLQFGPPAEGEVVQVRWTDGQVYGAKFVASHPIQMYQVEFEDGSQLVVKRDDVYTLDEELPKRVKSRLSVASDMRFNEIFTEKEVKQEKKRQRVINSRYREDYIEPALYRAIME
% is scaled to controls: 0 for no effect and ±100 for the full control effect; potency is read from the fitted curve at half-maximal effect; tags tell the direction and shape of the fitted curve.
Also: nearly all actives have a fitted effect of over 50% in size.

Potency, active:
COc1cc(C=C(c2nc3ccccc3s2)c2nc3ccccc3s2)ccc1O 44.7 µM
CCN(CC)S(=O)(=O)c1cccc(-c2n[nH]c(=S)n2/N=C/c2ccc(C(=O)OC)cc2)c1 10 µM
Cc1nc2ccccn2c1/C(O)=C1\C(=O)C(=O)N(CCN2CCOCC2)C1c1ccncc1 (stereo not given) 25.1 µM
Clc1ccccc1C(c1ccccc1)(c1ccccc1)n1ccnc1 28.2 µM
c1ccc(C(c2c[nH]c3ccccc23)c2c[nH]c3ccccc23)nc1 79.4 µM
CCN(CC)CCOC(=O)CCc1cccc2ccccc12 28.2 µM
S=C(NCCCc1cnc[nH]1)NCCCN(Cc1ccc(Cl)cc1)c1ccc(Br)cn1 50.1 µM
Oc1ccc(C23CC4CC(CC(C4)C2)C3)cc1O 22.4 µM
O=[N+]([O-])c1ccc(O)c(/C=N/Nc2ccc(Cl)nn2)c1 7.94 µM
O=c1ccc(-c2n[nH]c(=S)n2-c2ccc(F)c(Cl)c2)n[nH]1 35.5 µM
CCNc1ccccc1CP(=O)(c1ccccc1)c1ccccc1O (stereo not given) 50.1 µM
O=C(OCc1nnc(-c2ccccc2)o1)c1ccc(S(=O)(=O)NCc2ccco2)cc1 79.4 µM
COc1ccc(-n2cc(-c3ccc(OC)c(OC)c3)[nH]c2=S)cc1 3.16 µM
CN(C1=C(N2CCOCC2)C(=O)c2ccccc2C1=O)c1ccccc1 15.8 µM
CN(Cc1ccccc1)C(=O)C1CCN(S(=O)(=O)c2cccc3nsnc23)CC1 14.1 µM
CC1C(c2ccc3c(c2)OCO3)c2cc3c(cc2OC1N1CCOCC1)OCO3 (stereo not given) 17.8 µM
CCOC(=O)C1CCCN(Cc2nc(N)nc(Nc3ccc(OC)cc3)n2)C1 (stereo not given) 20 µM

Potency, inconclusive:
COc1cc(NC(=O)c2ccccc2)c(OC)cc1NC(=O)CN1CCN(c2ccccn2)CC1 50.1 µM [inhibitor, partial curve]
Cc1cc(C)nc(NC(=O)c2ccc(Cl)c([N+](=O)[O-])c2)n1 22.4 µM [inhibitor, full curve, poor fit]
CC(C)=CCC/C(C)=C/CNC(=O)C[C@H]1C[C@H](C(=O)N(C(C)C)C(C)C)[C@@]2(C)c3[nH]c4cc(-c5ccco5)ccc4c3CCN2C1=O 17.8 µM [inhibitor, full curve]
COC(=O)CCC(=O)OC1(C)C(=O)C2=CN(CCCOC(C)C)C(c3ccc(OC)cc3)=CC2=C(Br)C1=O (stereo not given) 50.1 µM [inhibitor, partial curve]
O=[N+]([O-])c1ccc(N2CCCC2)cc1NC(c1ccccc1)c1ccccc1 3.98 µM [inhibitor, full curve, poor fit]
CC(=O)c1sc(=S)n(-c2ccc(Cl)cc2)c1C 17.8 µM [inhibitor, full curve]
c1ccc2[nH]c(NC3=NCCC3)nc2c1 56.2 µM [inhibitor, partial curve]
O=S(=O)(c1ccccc1)c1nc(-c2ccco2)oc1N1CCCCC1 50.1 µM [inhibitor, partial curve]
Cc1ccc(N2NC(=O)/C(=C/c3ccc(-c4ccc(Cl)c(C(=O)O)c4)o3)C2=O)cc1 56.2 µM [inhibitor, partial curve]
O=C(c1ccccc1O)N(Cc1ccco1)Cc1cccs1 79.4 µM [inhibitor, partial curve]
CN(C)CCNC(=O)COc1ccc(Cl)cc1Cl 15.8 µM [inhibitor, full curve]
Cc1cccc(Nc2nnc(-c3ccc(N4CCOCC4)c([N+](=O)[O-])c3)c3ccccc23)c1 35.5 µM [inhibitor, partial curve]
O=C(NC(=S)Nc1cccc2c(O)cccc12)c1cccc(Br)c1 39.8 µM [inhibitor, partial curve]
COc1ccc(NCC(=O)Nc2cccc(S(=O)(=O)N3CCCC3)c2)cc1Cl 50.1 µM [inhibitor, partial curve]
COc1ccc(C(=O)Nc2ccc(Nc3ccccc3)cc2)cc1Br 31.6 µM [inhibitor, partial curve]
CCCCC(=O)NC1=C(C(=O)OC)SCC1 25.1 µM [inhibitor, single point]
CN(C)c1ccc(NS(=O)(=O)c2cc3c4c(c2)CC(=O)N4CCC3)cc1 56.2 µM [inhibitor, partial curve]
CCOC(=O)c1c(C)[nH]c(C)c1S(=O)(=O)NCC(=O)N1CCN(c2cccc(C)c2)C(C)C1 (stereo not given) 100 µM [inhibitor, partial curve]
COc1ccc(Cn2cccc(NC(=O)Nc3cccc(OC)c3)c2=O)cc1 44.7 µM [inhibitor, full curve, poor fit]
NN=C1c2ccccc2C(=O)C1C(=O)C(c1ccccc1)c1ccccc1 (stereo not given) 39.8 µM [inhibitor, full curve]
Cc1ccc(NC(=O)Cc2cn(C)c3ccccc23)cc1F 56.2 µM [inhibitor, partial curve]
[O-]/C(=C(\C(=S)NCc1ccccc1)[n+]1ccccc1)c1ccc(Cl)cc1 50.1 µM [inhibitor, partial curve]
COC(=O)CCC(=O)OC1(C)C(=O)C=C2C=C(C3CC3)N(Cc3ccc(OC)cc3)C=C2C1=O (stereo not given) 89.1 µM [inhibitor, partial curve]
S=c1[nH]nc(-c2cc(-c3ccccc3)n[nH]2)n1/N=C/C=C/c1ccco1 28.2 µM [inhibitor, full curve]
CCOC(=O)CN1C(=O)S/C(=C/c2cc(C)n(-c3ccccn3)c2C)C1=O 56.2 µM [inhibitor, partial curve]
O=c1[nH]c2ccc(Br)cc2c(-c2ccccc2)c1CN1CCOCC1 11.2 µM [inhibitor, full curve, poor fit]
COc1ccc(C(C)n2c(C)c3c(C)nnc(C)c3c2C)cc1 (stereo not given) 56.2 µM [inhibitor, partial curve]
O=C(Nc1c(C(=O)N2CCN(c3ccccn3)CC2)oc2ccccc12)c1cccc([N+](=O)[O-])c1 50.1 µM [inhibitor, partial curve]
CO/N=C/c1ccc(N2CCN(C(=O)c3ccc(Cl)cc3Cl)CC2)c([N+](=O)[O-])c1 11.2 µM [inhibitor, full curve]
COc1ccc(C)cc1Nc1nc(C)nc2sc(C)cc12 17.8 µM [inhibitor, partial curve, poor fit]
Cc1cccc(N2CCN(CCCNC(=O)c3nnc(Cc4c(F)cccc4Cl)o3)CC2C)c1 (stereo not given) 44.7 µM [inhibitor, partial curve]
Nc1ccccc1C(=O)N1O[C@@H]2C=C[C@H]1C2 56.2 µM [inhibitor, partial curve]
COc1ccc(S(=O)(=O)Nc2cccc3cccnc23)c([N+](=O)[O-])c1 15.8 µM [inhibitor, partial curve]
CCC[C@@H](CN1CCC[C@H]1CN1C(N)=NC[C@H]1CC(C)C)N1C[C@@H]([C@H](C)CC)N(CCCC2CCCC2)C1=N 56.2 µM [inhibitor, partial curve]
CC(Nc1ccc2c(c1)OCCO2)C(=O)N1CCc2ccccc21 (stereo not given) 56.2 µM [inhibitor, partial curve]
CCn1cc(C(=O)NCCc2ccc(C)cc2)c(=O)c2cc(S(=O)(=O)N3CCCCC3)ccc21 3.16 µM [inhibitor, full curve, poor fit]

Activity change, negative = inhibition, inactive:
CCOc1ccc(N(C)C(=O)CCc2nnc3ccc(N4CCCCC4)nn23)cc1 -16.9%
O=C(CCn1c(=S)[nH]c2ccccc2c1=O)NCCc1ccccc1 -1.68%
CCCOc1cccc(C2C(C(=O)c3cccs3)=C(O)C(=O)N2CCN2CCOCC2)c1 (stereo not given) -0.725%
Cc1cnc(NC(=O)c2cccc(S(=O)(=O)N3CC(C)OC(C)C3)c2)s1 (stereo not given) -11.6%
Cc1ccc(/C=C2\SC(=O)N(CCNC(=O)C3CSC4(C)CCC(=O)N34)C2=O)cc1 (stereo not given) -17.9%
Cc1ccc(/C=N/NC(=O)c2cc3c(ccc4ccccc43)o2)o1 -11.4%
COc1ccc(-n2ncc3c2CC(C)(C)CC3NC(=O)c2ccoc2C)cc1 (stereo not given) -7.35%
CCC(C)Sc1ccc([C@@H]2[C@H]3C(=O)N(C)C(=O)[C@H]3[C@]3(C(=O)OC)CCCN23)cc1 (stereo not given in full) -20.7%
Cc1ccc(NC(=O)CSC(C)c2nc3ccccc3c(=O)[nH]2)cc1 (stereo not given) -6.94%
Cc1ccc2nc(Nc3ccc(Cl)cc3)c3nncn3c2c1 -11%
O=S(=O)(c1ccc2c(c1)CCN2)N1CCCCCC1 -23.5%
Cc1ccc(S(=O)(=O)NN2C(=O)/C(=C/c3cccc(F)c3)SC2=S)cc1 -32%
COc1cc(NC(=O)Cn2nc(-c3ccc(C)c(C)c3)ccc2=O)cc(OC)c1 -12.3%
CCN(CC)S(=O)(=O)c1ccc2c(c1)N(CC(=O)Nc1ccc(C)cc1C)C(=O)C1CCCN21 (stereo not given) -15.9%
CC1CCCN(S(=O)(=O)c2ccc(S(=O)(=O)N3CCCC3)cc2)C1 (stereo not given) 0.685%
COc1ccc(NC(=O)NNc2cc(N3CCOCC3)nc(N3CCOCC3)n2)cc1 -9.52%
CCCCCCCC(=O)NNC(=O)c1ccc(F)cc1 -4.48%
